# In all, about 330,000 compounds went through this assay and about 4,200 (1.3%) were called active. The shares of active, inactive and inconclusive entries below differ from those in the screen. Calls come from the whole dose curve; as a rule, active = well fitted activation curve with a large enough effect; inconclusive = small, poorly fitted or top-dose-only effect; inactive = no such curve, though single readings can be large or run the other way. Potencies beside an inconclusive call are fits to weak or partial responses and may not hold up.
# Experiment: qHTS screen for small molecules that induce genotoxicity in human embryonic kidney (HEK293T) cells expressing luciferase-tagged ELG1; note: nearly all actives have a fitted effect of over 60% in size
# Conditions: HEK293T ELG1-luciferase reporter, luminescence, 16 h; series mostly up to 46 µM
# Summary of the method: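 Luminescence read-out: rising ELG1-luciferase signal, reflecting elevated ELG1 protein under genetic stress, flags genotoxic compounds. Cells were treated for 16 hr at 37 °C before ONE-Glo detection.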
# Potency is the fitted concentration of half-maximal effect; tags give direction and shape of the fitted curve.
row,SMILES,Potency
1,CC1(C)CC(=O)c2sc(NC(=O)c3ccco3)nc2C1,active: 20.6 µM
2,CCOC(=O)c1sc(N(Cc2ccccc2)C(=O)CCl)nc1C,"inconclusive: 29.1 µM [activator, single point]"
3,COc1ccccc1/C=C/c1ccc2cccc(O)c2n1,active: 20.6 µM
4,CCCc1cnc(N2CCN(C(=S)NC)CC2)nc1,active: 23.1 µM
5,CN(Cc1c(F)cccc1Cl)C(=O)CNC(=O)c1sc2ccccc2c1Cl,"inconclusive: 29.1 µM [activator, single point]"
6,CCOc1ccc(OCc2ccc(C(=O)N3CCCC3)o2)cc1,inactive
7,COc1ccccc1C(=O)NNC(=O)c1cccc(F)c1,"inconclusive: 2.06 µM [activator, full curve]"
8,CCCn1c(-c2cccnc2Cl)nc2cc(Cl)c(Cl)cc21,inactive
9,CN(C)c1ccnc2sc3c(=O)n(-c4ccccc4)cnc3c12,inactive
10,CN1C(=O)/C(=C/c2ccc(O)c([N+](=O)[O-])c2)N(C)C1=S,"inconclusive: 18.3 µM [activator, single point]"
11,CCc1ccc(NC(=O)c2cnn3ccccc23)cc1,active: 0.184 µM
12,COC(=O)c1ccc(COc2cc(C)ccc2C)o1,"inconclusive: 18.3 µM [activator, partial curve, poor fit]"
13,Clc1ccc(-c2nnc(SCc3ccon3)o2)c(Cl)c1,active: 1.16 µM
14,CC(=O)Nc1cccc(C(=O)OCC(=O)NCc2cc(C)c(O)c(C)c2)c1,active: 14.6 µM
15,O=C(/C=C/c1cc2ccccc2o1)c1ccccc1O,"inconclusive: 16.4 µM [activator, partial curve]"
16,CCNc1c(NS(=O)(=O)c2ccc(Cl)s2)c(=O)oc2ccccc12,inactive
17,c1cncc(-c2noc(-c3cccc4ccccc34)n2)c1,active: 8.2 µM
18,O=C(O)c1cccc(NC(=O)c2ccc3c(c2)C(=O)N(c2cccc([N+](=O)[O-])c2)C3=O)c1,inactive
19,COc1ccc(C)cc1S(=O)(=O)N1CCCC(C(=O)N2CCN(c3ccccc3)CC2)C1 (configuration not stated),inactive
20,CCOc1ccc(OCCn2c(S(=O)(=O)O)nc3c(N)ncnc32)cc1,inactive
21,COc1ccc(CNC(=O)Cn2cccc2C(=O)c2ccccc2C)cc1,"inconclusive: 23.1 µM [activator, partial curve, poor fit]"
22,COCCNC(=O)CN(C(=O)Cn1nnc2ccccc21)c1ccccc1C,inactive
23,O=C(NC(=S)N1CCCCCC1)c1ccccc1Cl,"inconclusive: 2.91 µM [activator, single point]"
24,CN1/C(=C/C(=O)c2ccc(Cl)cc2)Sc2cc3c(cc21)OCO3,"inconclusive: 5.8 µM [activator, full curve]"
25,Cc1ccc(C)n1-c1ccc(C(=O)N2CCC(C(N)=O)CC2)cc1,"inconclusive: 12.6 µM [activator, single point]"
26,CCSc1nc(-c2ccccc2)cc(=O)[nH]1,inactive

row,SMILES,Potency
1,COc1ccc(/C=N/NC2=NCCCCC2)cc1,"inconclusive: 29.1 µM [activator, partial curve, poor fit]"
2,O=C(CSc1nnc(NC(=O)c2cccc(Br)c2)s1)NCC1CCCO1 (configuration not stated),"inconclusive: 25.9 µM [activator, single point]"
3,COc1ccc(NC(=O)Nc2c(C)n(C)n(-c3ccccc3)c2=O)cc1,"inconclusive: 32.6 µM [activator, single point]"
4,COc1ccc(C(=O)Nc2ccc(C(=O)N3CCOCC3)cc2)cc1OC,"inconclusive: 20.6 µM [activator, partial curve, poor fit]"
5,Cc1ccc(C(=O)COC(=O)c2cc(=O)[nH]c3ccccc23)cc1C,active: 20.6 µM
6,COc1ccc(-c2nc3ccccc3c(=O)[nH]2)cc1,active: 9.2 µM
7,O=C(NCCc1ccccc1)Nc1ccc2c(c1)OCO2,"inconclusive: 2.31 µM [activator, full curve]"
8,COC(=O)Nc1nnc(-c2ccc(OC)cc2)s1,active: 16.4 µM
9,COc1ccc(-n2ncc3c2CC(C)(C)CC3NC(=O)C2CCN(C(C)=O)CC2)cc1 (configuration not stated),inactive
10,CSCC[C@H](NC(=O)[C@@H]1Cc2ccccc2CN1)C(=O)Nc1ccc2c(c1)OCCO2,"inconclusive: 9.2 µM [activator, partial curve]"
11,O=S(=O)(Nc1cccc(-c2ccc3nncn3n2)c1)c1cccs1,"inconclusive: 25.9 µM [activator, partial curve, poor fit]"
12,COc1ccc(NC(=O)/C(C#N)=C\c2ccc(OCc3ccc(C(=O)O)cc3)c(OC)c2)cc1,"inconclusive: 1.64 µM [activator, partial curve, poor fit]"
13,CC(=O)C1=C(O)C(=O)N(c2ccc(Br)cn2)C1c1ccc(F)cc1 (configuration not stated),"inconclusive: 20.6 µM [activator, single point]"
14,Cc1cc(C(=O)N/N=C/c2cc(Cl)cc([N+](=O)[O-])c2O)n[nH]1,inactive
15,CC(C)c1ccc(/C=C/C(=O)NCc2ccc(S(N)(=O)=O)cc2)cc1,inactive
16,c1ccc(Sc2ncnc3c2oc2ccccc23)cc1,"inconclusive: 9.2 µM [activator, partial curve, poor fit]"
17,Fc1ccc2nc(N3CCOCC3)sc2c1,"inconclusive: 14.6 µM [activator, partial curve]"
18,Cc1ccc(CNc2oc(-c3cccs3)nc2C#N)cc1,"inconclusive: 23.1 µM [activator, single point]"
19,Cc1ccc(S(=O)(=O)N/N=C\c2cc([N+](=O)[O-])ccc2Cl)cc1,"inconclusive: 29.1 µM [activator, single point]"
20,COC(=O)c1ccc(COc2ccccc2/C=C(\C#N)C(=O)Nc2ccc(C)cc2C)cc1,"inconclusive: 29.1 µM [activator, partial curve, poor fit]"
21,C=CCc1cccc(/C=C/c2cc(=O)c3ccccc3[nH]2)c1O,"inconclusive: 25.9 µM [activator, partial curve, poor fit]"
22,CCC(C)C(=O)Nc1nc2ccc(OC)cc2s1 (configuration not stated),"inconclusive: 18.3 µM [activator, partial curve]"
23,CCc1c(C)c2nncn2[nH]c1=O,inactive
24,COc1ccccc1NC(=O)N1C2CCCC1CC(NC(=O)c1ccccc1)C2 (configuration not stated),inactive
25,O=C(CSc1ccccc1)NNC(=O)c1ccccc1O,inactive
26,CSc1nc2ccc(NC(=O)c3ccccn3)cc2s1,active: 0.092 µM

row,SMILES,Potency
1,COc1ccc2nc(NC(=O)c3ccc(NC(=O)C4CCCO4)cc3)sc2c1 (configuration not stated),inactive
2,CC(C)c1c(C(=O)N/N=C/c2ccoc2)nnn1-c1nonc1N,inactive
3,COc1ccc(C(=O)NNC(=O)CSc2nnc(C3CC3)n2C)cc1,inactive
4,COc1cccc(-c2cc3nc(-c4ccccc4)cc(=O)n3[nH]2)c1,"inconclusive: 18.3 µM [activator, single point]"
5,Cc1ccc2cc(NC(=O)Cc3ccccc3)ccc2n1,"inconclusive: 14.6 µM [activator, partial curve]"
6,CCOC(=O)c1sc(-c2ccccc2)nc1C,"inconclusive: 25.9 µM [activator, single point]"
7,CC1Cc2cc(S(=O)(=O)N3CCC(C(=O)NCc4ccco4)CC3)ccc2N1C(=O)C1CCC1 (configuration not stated),inactive
8,Cc1ccc(C)c(NC(=O)CSc2nnc(-c3ccncc3)n2N)c1,inactive
9,Cc1cc(Nc2ccc([N+](=O)[O-])cc2)c2ccccc2n1,"inconclusive: 29.1 µM [activator, single point]"
10,Cc1ccc(-c2cn3c(=O)cc(C)[nH]c3n2)cc1,"inconclusive: 4.11 µM [activator, full curve, poor fit]"
11,CN(C(=O)c1ccco1)c1nnc(C23CC4CC(CC(C4)C2)C3)s1,"inconclusive: 18.4 µM [activator, partial curve]"
12,Cc1cccc(NC(=S)NC(=O)/C=C/c2ccco2)n1,"inconclusive: 23.1 µM [activator, single point]"
13,C/C(=N\Nc1ccccn1)c1cccs1,"inconclusive: 9.2 µM [activator, partial curve]"
14,Cc1cc(C)n(-c2ccc(C(=O)Nc3ccccn3)cc2)n1,"inconclusive: 1.3 µM [activator, partial curve, poor fit]"
15,Cc1cc(NC(=O)c2cnccn2)no1,inactive
16,Cc1ccc2nc(-c3ccc(NC(=O)CSCC(=O)O)cc3)sc2c1,"inconclusive: 10.3 µM [activator, partial curve]"
17,O=C(COC(=O)c1ccc(O)cc1O)NC1CC1,inactive
18,O=[N+]([O-])c1ccc(-c2nc(C(Cl)Cl)c3ccccc3n2)cc1,inactive
19,O=C(CNC1CCCCC1)Nc1cccc(C(F)(F)F)c1,inactive
20,O=C(Nc1ccc(Br)cc1)c1cnccn1,"inconclusive: 23.1 µM [activator, partial curve, poor fit]"
21,O=C(Nc1sc2c(c1C(=O)O)CCC2)c1ccco1,"inconclusive: 25.9 µM [activator, single point]"
22,NC(=O)c1ccc(NC(=O)CSc2nc3ccccc3c(=O)n2CCCN2CCOCC2)cc1,"inconclusive: 23.1 µM [activator, partial curve, poor fit]"
23,CCC(=O)Oc1ccc(C(=O)Nc2ccc3c(c2)OCO3)cc1,"inconclusive: 9.2 µM [activator, partial curve]"
24,O=C(Nc1ccc(Cl)cn1)c1cccc(S(=O)(=O)N2CCCC2)c1,inactive
25,CCOc1ccc(NC(=O)Cn2nnc(C(=O)NCc3ccc(OC)cc3)c2N)cc1,"inconclusive: 13 µM [activator, partial curve, poor fit]"

# From PubChem BioAssay AID504466 (National Center for Advancing Translational Sciences (NCATS), 2011)
